# Assay results from the supplement of paper PMC8728848.
# The other results are listed elsewhere or left out.
# What was measured:
# Experiment in all cases: glycan array binding signal (z-score within array); higher = stronger binding
# Conditions in all cases: glycan notation: IUPAC condensed, linker removed
# Gal6S(b1-4)Glc = biological target: Gal6S(b1-4)Glc
# How it was run: (§1)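 Glycan array data were curated from 3228 arrays in the Consortium for Functional Glycomics database and kept only where the protein sequence was available. Glycan names were converted to IUPAC-condensed notation, and columns mapping to the same glycan were averaged. The binding signal is a within-array Z-score, averaged across arrays of the same protein sequence at different concentrations or buffers and across linkers. Negative Z-scores can be read as non-binding.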
# Gal6S(b1-4)Glc6S = biological target: Gal6S(b1-4)Glc6S
# How it was run: as §1
# Gal6S(b1-4)GlcNAc = biological target: Gal6S(b1-4)GlcNAc
# How it was run: as §1
# Gal6S(b1-4)GlcNAc6S = biological target: Gal6S(b1-4)GlcNAc6S
# How it was run: as §1
# GalNAc(a1-3)Gal = biological target: GalNAc(a1-3)Gal
# How it was run: as §1
# GalNAc(a1-3)GalNAc = biological target: GalNAc(a1-3)GalNAc
# How it was run: as §1
# [1] = biological target: GalNAc(a1-3)GalNAc(b1-3)Gal(a1-4)Gal(b1-4)Glc
# How it was run: as §1
# [2] = biological target: GalNAc(a1-3)GalNAc(b1-3)Gal(a1-4)Gal(b1-4)GlcNAc
# How it was run: as §1
# GalNAc(b1-3)Gal = biological target: GalNAc(b1-3)Gal
# How it was run: as §1
# [3] = biological target: GalNAc(b1-3)Gal(a1-4)Gal(b1-4)GlcNAc
# How it was run: as §1
# [4] = biological target: GalNAc(b1-3)Gal(a1-4)Gal(b1-4)GlcNAc(b1-3)Gal(b1-4)Glc
# How it was run: as §1
# [5] = biological target: GalNAc(b1-3)Gal(a1-6)Gal(b1-4)Glc
# How it was run: as §1
# GalNAc(b1-3)GalNAc = biological target: GalNAc(b1-3)GalNAc
# How it was run: as §1
# GalNAc(b1-3)GlcNAc = biological target: GalNAc(b1-3)GlcNAc
# How it was run: as §1
# GalNAc(b1-4)Gal(b1-4)Glc = biological target: GalNAc(b1-4)Gal(b1-4)Glc
# How it was run: as §1
# GalNAc(b1-4)GlcNAc = biological target: GalNAc(b1-4)GlcNAc
# How it was run: as §1
# [6] = biological target: GalNAc(b1-4)GlcNAc(b1-2)Man
# How it was run: as §1
# [7] = biological target: GalNAc(b1-4)GlcNAc(b1-2)Man(a1-3)[GalNAc(b1-4)GlcNAc(b1-2)Man(a1-6)]Man(b1-4)GlcNAc(b1-4)GlcNAc
# How it was run: as §1
# [8] = biological target: GalNAc(b1-4)GlcNAc(b1-3)GalNAc(b1-4)GlcNAc
# How it was run: as §1
# GalNAc(b1-4)GlcNAc6S = biological target: GalNAc(b1-4)GlcNAc6S
# How it was run: as §1
# GalNAc(b1-6)GalNAc = biological target: GalNAc(b1-6)GalNAc
# How it was run: as §1
# GalNAc3S(b1-4)GlcNAc = biological target: GalNAc3S(b1-4)GlcNAc
# How it was run: as §1
# GalNAc3S(b1-4)GlcNAc3S = biological target: GalNAc3S(b1-4)GlcNAc3S
# How it was run: as §1
# [9] = biological target: GalNAc3S(b1-4)[Fuc(a1-3)]GlcNAc
# How it was run: as §1
# GalNAc4S6S(b1-4)GlcNAc = biological target: GalNAc4S6S(b1-4)GlcNAc
# How it was run: as §1
# GalNAc6S(b1-4)GlcNAc = biological target: GalNAc6S(b1-4)GlcNAc
# How it was run: as §1
# Glc(a1-4)Glc = biological target: Glc(a1-4)Glc
# How it was run: as §1
# [10] = biological target: Glc(a1-4)Glc(a1-4)Glc(a1-4)Glc
# How it was run: as §1
# Glc(a1-6)Glc(a1-6)Glc = biological target: Glc(a1-6)Glc(a1-6)Glc
# How it was run: as §1
# [11] = biological target: Glc(a1-6)Glc(a1-6)Glc(a1-6)Glc
# How it was run: as §1
# Glc(b1-4)Glc = biological target: Glc(b1-4)Glc
# How it was run: as §1
# Glc(b1-6)Glc = biological target: Glc(b1-6)Glc
# How it was run: as §1
# GlcA(b1-3)Gal = biological target: GlcA(b1-3)Gal
# How it was run: as §1
# GlcA(b1-3)GlcNAc = biological target: GlcA(b1-3)GlcNAc
# How it was run: as §1
# GlcA(b1-6)Gal = biological target: GlcA(b1-6)Gal
# How it was run: as §1
# [12] = biological target: GlcA3S(b1-3)Gal(b1-4)GlcNAc(b1-2)Man
# How it was run: as §1
# [13] = biological target: GlcA3S(b1-3)Gal(b1-4)GlcNAc(b1-3)Gal(b1-4)Glc
# How it was run: as §1
binder,measurement,setting,value
"Siglec-E (Mus musculus), Q91Y57 (protein) MLLLLLLLLLWGIKGVEGQNPQEVFTLNVERKVVVQEGLCVLVPCNFSYLKKRLTDWTDSDPVHGFWYREGTDRRKDSIVATNNPIRKAVKETRNRFFLLGDPWRNDCSLNIREIRKKDAGLYFFRLERGKTKYNYMWDKMTLVVTALTNTPQILLPETLEAGHPSNLTCSVPWDCGWTAPPIFSWTGTSVSFLSTNTTGSSVLTITPQPQDHGTNLTCQVTLPGTNVSTRMTTRLNVSYAPKNLTVTIYQGADSVSTILKNGSSLPISEGQSLRLICSTDSYPPANLSWSWDNLTLCPSKLSKPGLLELFPVHLKHGGVYTCQAQHALGSQHISLSLSPQSSATLSEMMMGTFVGSGVTALLFLSVCILLLAVRSYRRKPARPAVVAPHPDALKVSVSQNPLVESQADDSSEPLPSILEAAPSSTEEEIHYATLSFHEMKPMNLWGQQDTTTEYSEIKFPQRTAWP",glycan array binding signal (z-score),Gal6S(b1-4)Glc,-0.346
same,glycan array binding signal (z-score),Gal6S(b1-4)Glc6S,0.088
same,glycan array binding signal (z-score),Gal6S(b1-4)GlcNAc,-0.529
same,glycan array binding signal (z-score),Gal6S(b1-4)GlcNAc6S,-0.205
same,glycan array binding signal (z-score),GalNAc(a1-3)Gal,0.175
same,glycan array binding signal (z-score),GalNAc(a1-3)GalNAc,-0.409
same,glycan array binding signal (z-score),[1],-0.528
same,glycan array binding signal (z-score),[2],-0.229
same,glycan array binding signal (z-score),GalNAc(b1-3)Gal,-0.032
same,glycan array binding signal (z-score),[3],-0.488
same,glycan array binding signal (z-score),[4],-0.43
same,glycan array binding signal (z-score),[5],-0.359
same,glycan array binding signal (z-score),GalNAc(b1-3)GalNAc,-0.432
same,glycan array binding signal (z-score),GalNAc(b1-3)GlcNAc,-0.423
same,glycan array binding signal (z-score),GalNAc(b1-4)Gal(b1-4)Glc,4.05
same,glycan array binding signal (z-score),GalNAc(b1-4)GlcNAc,-0.347
same,glycan array binding signal (z-score),[6],-0.482
same,glycan array binding signal (z-score),[7],-0.083
same,glycan array binding signal (z-score),[8],-0.588
same,glycan array binding signal (z-score),GalNAc(b1-4)GlcNAc6S,-0.325
same,glycan array binding signal (z-score),GalNAc(b1-6)GalNAc,-0.408
same,glycan array binding signal (z-score),GalNAc3S(b1-4)GlcNAc,-0.427
same,glycan array binding signal (z-score),GalNAc3S(b1-4)GlcNAc3S,-0.301
same,glycan array binding signal (z-score),[9],0.019
same,glycan array binding signal (z-score),GalNAc4S6S(b1-4)GlcNAc,-0.147
same,glycan array binding signal (z-score),GalNAc6S(b1-4)GlcNAc,-0.338
same,glycan array binding signal (z-score),Glc(a1-4)Glc,-0.238
same,glycan array binding signal (z-score),[10],1.05
same,glycan array binding signal (z-score),Glc(a1-6)Glc(a1-6)Glc,-0.309
same,glycan array binding signal (z-score),[11],1.1
same,glycan array binding signal (z-score),Glc(b1-4)Glc,-0.196
same,glycan array binding signal (z-score),Glc(b1-6)Glc,1
same,glycan array binding signal (z-score),GlcA(b1-3)Gal,-0.395
same,glycan array binding signal (z-score),GlcA(b1-3)GlcNAc,-0.232
same,glycan array binding signal (z-score),GlcA(b1-6)Gal,0.097
same,glycan array binding signal (z-score),[12],-0.207
same,glycan array binding signal (z-score),[13],-0.117
